Measured values published in ChEMBL document CHEMBL1201862, “PubChem BioAssay data set” (2004).

test system: NCI-H322M; experiment: inhibition of tumour cell growth, NCI panel, 48 h

Structure (SMILES)	GI50
NC(CCC(=O)c1ccccn1)C(=O)O (configuration not stated)	inactive: > 100 µM
N/C(=N\Nc1ccc(Cl)cc1)c1cnccn1	inactive: > 100 µM
CC(C)(C)c1cc(CCCCCCCC2(CCCCCCCc3cc(C(C)(C)C)cc(C(C)(C)C)c3)OC(COCCOCCCCCC#N)C(COCCOCCCCCC#N)O2)cc(C(C)(C)C)c1 (configuration not stated)	inactive: > 100 µM
COc1cccc(-c2cc(O)c3cc(N4CCN(C)CC4)ccc3n2)c1	inactive: 5.04 µM
NS(=O)(=O)c1nn2c(Br)c(-c3ccccc3)nc2s1	inactive: 4.83 µM
COC(=O)c1ccc(/N=N/N(C)COc2ccc(C#N)cc2)cc1	inactive: > 100 µM
COc1ccc(/C=C/C(=N\NC(=O)c2ccccc2)c2sc(Nc3ccc([N+](=O)[O-])cc3)nc2C)cc1OC	inactive: 14.3 µM
c1ccc(C2=NCCN2)c(C2=NCCN2)c1	inactive: > 100 µM
CCOC(=O)C1(C#N)OC(=O)c2cnccc21 (configuration not stated)	inactive: > 100 µM
O=c1[nH]c2nc3ccccc3c(=O)n2/c1=C/c1ccc(Cl)cc1	inactive: 50.1 µM
CCN(CC)c1ccc(/C=C/C2=NN(c3cccc(S(=O)(=O)O)c3)C3(C2)C(Cl)C(=O)N3c2nc3ccccc3s2)cc1 (configuration not stated)	inactive: 15.7 µM
O=C(O)[C@@H]1[C@H](C(=O)O)[C@H](C(=O)O)C[C@@H]1C(=O)O	inactive: > 100 µM
CC(=O)NNC1=NN(C(C)=O)C2(S1)C(=O)Nc1ccc(Br)cc12 (configuration not stated)	inactive: > 100 µM
CC1(c2ccccc2)CC(c2cccc([N+](=O)[O-])c2)=NO1 (configuration not stated)	inactive: > 100 µM
COc1ccc(/C=C/C(=O)c2ccc(OC(=O)/C=C/c3ccccc3)cc2)cc1	inactive: 24 µM
O=C(c1cc(Cl)cc(Cl)c1)N1CCN(C(=O)c2cc(Cl)cc(Cl)c2)C1=S	inactive: 16.7 µM
CC1(Cl)C(=O)NC(=O)N([C@H]2C[C@H](O)[C@@H](CO)O2)C1N=[N+]=[N-] (some centres not stated)	inactive: > 100 µM
C=C1CC(C)(COc2ccc3c(C)c(Cl)c(=O)oc3c2)OC1=O (configuration not stated)	inactive: 5.81 µM
CCOC(=O)C1CCC(=O)N1C(=O)c1ccc(Cl)cc1 (configuration not stated)	inactive: > 100 µM
NC(=O)C(NC=O)c1ccccc1 (configuration not stated)	inactive: > 100 µM
C=C1C(=O)C23CC1CCC2C12CO[C@@H]4OCC(C)(CC[C@@H]1OC3=O)C42 (some centres not stated)	inactive: 15.7 µM
C=CO/N=[N+](\[O-])N(CC)CC	inactive: > 100 µM
COc1cc(C2c3cc4c(cc3[C@@H](N(C)c3ccc(N(C)C)cc3)C3COC(=O)C23)OCO4)cc(OC)c1O (some centres not stated)	inactive: 3.74 µM
[O-][S+]1c2ccccc2N=C(c2ccc3ccccc3c2)CC1c1ccccc1 (configuration not stated)	inactive: 48.1 µM

Structure (SMILES)	GI50
N#Cc1nc(C(CO)N(Cc2ccccc2)C(=O)O)oc1N (configuration not stated)	inactive: > 100 µM
N#C[BH2-][n+]1ccc(C(=O)NNCc2ccccc2)cc1	inactive: 48.6 µM
CCc1cc2c(cc1C(=O)CCC(=O)O)CC1(C2)Cc2cc(CC)c(C(=O)CCC(=O)O)cc2C1	inactive: > 100 µM
CC1=C(C(=O)N[C@@H](CC(C)C)C(=O)O)N2C(=O)[C@@H](NC(=O)C(N)c3ccccc3)[C@H]2SC1 (some centres not stated)	inactive: > 100 µM
CC(NC(=O)/C(=C/c1ccccc1)NC(=O)c1ccccc1)C(=O)O (configuration not stated)	inactive: 51.2 µM
O=C1C2=C(N[C@@H](c3ccccc3)[C@H](c3ccccc3)N2)C(=O)c2ccccc21	inactive: > 100 µM
CCOC(=O)C(=CNc1ccc(N(C2=NCC(C)S2)c2ccc(F)c(Cl)c2)cc1)C(=O)OCC (configuration not stated)	inactive: 25 µM
C=CC(c1ccccc1)C1(O)c2cccc(O)c2C(=O)c2c(O)cccc21 (configuration not stated)	inactive: 19.1 µM
COc1cc2c(cc1OC)[C@H]1C(COC(=O)c3ccccc3)CS/C(=N/c3ccccc3)N1CC2 (some centres not stated)	inactive: > 100 µM
CC1=CC(=O)c2ccccc2C1=O [MENADIONE]	inactive: 15.3 µM
CC1(C)C2CCC1(C)C(OC(=O)/C=C/C(=O)OC1CC3CCC1(C)C3(C)C)C2 (configuration not stated)	inactive: > 100 µM
COc1ccc(O[C@H](COCc2ccccc2)C[C@@H]2COC(C)(C)O2)cc1	inactive: > 100 µM
N=C(CC(=O)Nc1ccc(Cl)cc1)Nc1ccccc1	inactive: > 100 µM
CC/C=C/C(CC)C/C(C)=C\[C@]1(CC)C[C@H](CC)[C@H](CC(=O)O)OO1 (some centres not stated)	inactive: 1.71 µM
COc1cccc(-c2cccc(SC)n2)n1	inactive: 59.2 µM
Cc1cn(S(=O)(=O)c2ccccc2)c2c(OCc3ccccc3)cc(NS(C)(=O)=O)cc12	inactive: 26.5 µM
C/C(=C\COP(=O)(O)OP(=O)(O)O)CC/C=C(\C)CNc1c(F)c(F)c(F)c(F)c1F	inactive: > 44.8 µM
O=C(/C=C1\C[C@H]2C=Nc3ccccc3C(=O)N2C1)NCCCCNC(=O)/C=C1\C[C@H]2C=Nc3ccccc3C(=O)N2C1	inactive: 17.3 µM
N#Cc1nc(C#N)n(C(=O)c2ccccc2)c1NC(=O)c1ccccc1	inactive: > 100 µM
Cc1ccc(S(=O)(=O)N/N=C2\C(=O)Nc3cc(O)c(C(=O)O)cc32)cc1	inactive: > 100 µM
COc1cc2c(cc1O)-c1c(OC)c(O)cc3c1C(C2)N(C)CC3 (configuration not stated)	inactive: > 100 µM
CC(=O)OCC1OC(Sc2ccccn2)C=CC1OC(C)=O (configuration not stated)	inactive: > 100 µM
COC(=O)CCc1ccc2c(c1)CC1(C2)Cc2ccc3c(c2C1)CCC3 (configuration not stated)	inactive: > 100 µM

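96-well plates; 48 h exposure; 5 concentrations. Endpoints by linear interpolation between flanking doses. Not reached: highest tested concentration assigned. Abbreviation: GI50, concentration required for 50% inhibition of growth.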 Activity calls are given as the source filed them. Rule as the data show it: active = GI50 up to about 1.1 µM and inactive = higher.
